# Over roughly 4,500 sequences, “median log2 fold change of GCK-ALFA target abundance (FLAG IP / Myc IP barcode read proportion)” has its median near 0.078; the lowest 2% begin near -0.6. This is one part of the list.
# B1: GBRAP_74_6557 (protein)
# chain: SAEFRARVEAARAARDLDALIALAREALEAGDKENALLALEAALELFREHREEVSPEQIAALADVIAALYEKVDMLDLSDELLRAMAEALAAAVEAEKAA
# B2: GBRAP_128_3273 (protein)
# chain: MNEEVVAFAKEKVEKIKNSNDEEKREIAREIMERILASSLEEAEAMIEVIEEKLPELSAEDLDILADVAREARPKASPEKANLIAGLEVEALNQAEELEE
# B3: GBRAP_184_5333 (protein)
# chain: TTLRVHIENKSTEEIIKEVEEALKEAAAKGADLLVTIDASGYSTEELEKILEEIGELAKKEGVKNLTIGIDKEVTEEEADKLIKIADKYGIKLVLALSDE
# B4: GBRAP_35_5545 (protein)
# chain: DFDEETVEMLLNTMEDIVLALPDVSPEEKLILARHLIDLAEKAIEEKPKNVELLKRGIEVLERAIEIVKASDLPEEEREELIERLEEVKEKFEKLLKENE
# B5: GBRAP_52_6335 (protein)
# chain: MEEKIKEYAEKIVEAVKAGDEEKALALTREAAKNFSLEEVREMMKLYAELAVKELPDKEDLVFETAEKLADVIEEETGDEVLADEFEAYTARLLYERSLA
# B6: GBRAP_125_2987 (protein)
# chain: SEEELLEDLRRLARALGLSEEEAEELVRLAREHSVRQTLYALALALGWEEVAEAVARLTEEEAREVVRRATEEILANPDMTPEEVVELLLRLAREALARR
# B7: GBRAP_139_3724 (protein)
# chain: AALEKAKKEAKELVKKYRNDLEKLAKELAELIASVDDETALAIAEAAAEELKDWSWEEWEEFIELLSKELKKLGLEEDRILAIEGTLEAVAAKHLIEKEK
# B8: GBRAP_26_5457 (protein)
# chain: VEEAIDEARDNLEKVAKEVLTPEDAAAVITEISTEAWEIEKVVEEHPNDLEKIEKAIEDFKEDVLETLDLLDVPEDKKKIIKEKIEEEAKRLKEVAKEKV
# B9: GBRAP_128_3484 (protein)
# chain: SVEEAVAKVKELMEKIKTSSLEEVKEIAKEIVELLGSLDDESAEAAAEVIIKELPKLSAEKLDILADVFRENRDKLDPLKANLVADVQVEALNEALEKEE
# B10: GBRAP_52_6038 (protein)
# chain: MRERMRALAEEIVALVRAGRLDEARALIERLVATETPEELELLGEELARLAREAAPEDLDAIMEAADMFADALIAAGYDEVFADDVLARVARAAVENLAA
# B11: GBRAP_160_4089 (protein)
# chain: MEEVEKLIEEIREEAERTKEMIEGETAEQRATIVRGLGGDVIMLLFESGVVSDEVIDFADEEFDALVDTILANPDLTYEEVKAMLDEVVEKIIEKIKEEA
# B12: GBRAP_128_3331 (protein)
# chain: MNEERIEEARELAREMEKADVEEVREITRRILELMGEASEEEREIIAEIFREALEKLSAEKLEAVADEIRRRRPELDPLTQLYADDLEVEALNLAEEKEE
# B13: GBRAP_78_6714 (protein)
# chain: KVKELLEKAIKELNKAAKLALKLPEERSNEILDLLVEAANLLHEVMEEGVEKEEALKKLEEALKKLEEAEKLLGENDKELKKEVEKAKKLVEEAIKKLKE
# B14: GBRAP_80_6854 (protein)
# chain: AEAALAAALAALAAVLPENAAVAKEIVEIAKELGVPLETITDFLNAMTELAKVDPAKAGELLKELLEELKELKEEGDSEGATAVLQGYAGEALLLAEELE
# B15: GBRAP_184_5215 (protein)
# chain: TLKRVAIEATTAEEAIAKADAAVAAAQAAGVDLVLHVFAENMSLEEIEEVMKYLSGLLKAGKIKDAVLHVEDDLSEEEIDKLIELADKYGIRLVLALPDS
# B16: GBRAP_52_6103 (protein)
# chain: MREELRKKLLEILELVKAGKLEEAEKEIRKLVEELDDEELRLFADELARLAREAAPEDLDAVWRLAEMIAKAMEEAGKDEVLVDYLLARTAAALYEREQA
# B17: GBRAP_160_4567 (protein)
# chain: MEKVKKFLEDLEKAIKETLEATKNDSVENIRIAVVGTVGSFAMEAAEDPEFSDEMVDAIIDAGDEIAEALKKMKNASYEEIRKEVMKIIEKLKKKVLEIA
# B18: GBRAP_160_4282 (protein)
# chain: GEKLKELAEELREDRDEILSLVDKISAEEVRTFAVTSLGSILMEAIDGELLTDEEEDELAKIIDDLEAELDALKDASPEEIRAAIEKHFDKAIELLEKAA
# B19: GBRAP_14_3825 (protein)
# chain: MEKIREVIARMVADLEALFAAISPAKAAALAAAVKAEAERALREIEETGDVEAAMRAAEARLVAAVAAILADEPAEVQATAQAAVRVEWAEAEEEIDELL
# B20: GBRAP_14_3802 (protein)
# chain: SEEREKAVREITRETIELVREVLEDAPEEVREAVEEKIEEFEEEVIEKNLNPDEVAELGDELVEEVEEILKDAPEEVRARVLAVVAVETGVVVLEIEELE
# B21: GBRAP_52_6076 (protein)
# chain: MEEKIKATADAIYEAIKAGDKEKALALIEEAIKNFSIEEIKKMLELTAKKVAALGEEAEELFVEVLDEAEDLLLKAGISEDDALEIVGAAEAALAKAVAA
# B22: GBRAP_139_3688 (protein)
# chain: SALEAKLAEARELTRRAVAEGEPALRELAAFLNSLSEEEREKAVEAIGEELLSLPFDEAEAIFEALRRIALEEFKNEDLAEMIEIERERTLARIAVREEA
# B23: GBRAP_160_4745 (protein)
# chain: SEELKKLLEEVNEIFDEGIELLEEVPKEEALTVVRGTMGEVLMAVFSSDAASDELEEKIGEIMDEAVERAEANEDGSVEEFIAILKEARDKITELIEKEI
# B24: GBRAP_128_3224 (protein)
# chain: SMEELEEKVRELLEKIKESGPEERRKLAKELAELMANSTVEEAEAMVKVVEELAPELSEEDLEILIDEFEKAAKATDGPIADELLYAATILSEELLEKEE
# B25: GBRAP_184_5247 (protein)
# chain: AVHSLELTVNSAADIPAAVAKAAAFFAAHKGTIHILLTAEGISTEDKVELIEALGKAAKAAGIKDLIIDLDADLSEEDVDKLIAAADKLGVRLVVALNEE
# B26: GBRAP_128_3368 (protein)
# chain: LDEEKLEEIRKLVEEMIKSSVEEVAELTKEIVELISKLSPEEKEAAVEIILEMLPKFSEEKLETIADVIEENKSKVDEYTQRLLAEVQVEALNLAEELEE
# B27: GBRAP_122_2949 (protein)
# chain: SSEERVRARVDETLARAEAGDPTAAIVEALLEAAEELSPEEVKRFADLLAERMRELGKEAEAAKAFATAALTLEKERPELAEVADHLADLAIELLDLLEE
# B28: GBRAP_160_4053 (protein)
# chain: MEKLEELKESVKEAEKLILETIETDGVDAAIVVADGEFGSIIMEAAEDEEASEELEEELAKIRDDLVAKLKAAKNASVEEQKKIVKEAAEKAIEAIEKLF
# B29: GBRAP_160_4166 (protein)
# chain: MEKLEKAKKEIKEIFEEAIEEMKGQTAEERANIARVAFGEIKLLLEENGLLTDEVEEKIDEIEEELVSTILANPDLTDEELAELIKKALEEIFKALEESY
# Molecular target: GABARAP, O95166
# Sequence (O95166 whole entry, the tested form may be a part): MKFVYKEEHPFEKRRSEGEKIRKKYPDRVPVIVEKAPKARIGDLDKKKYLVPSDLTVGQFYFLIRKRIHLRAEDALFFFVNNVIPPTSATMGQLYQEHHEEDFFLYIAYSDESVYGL
# Test: median log2 fold change of GCK-ALFA target abundance (FLAG IP / Myc IP barcode read proportion) (log2 ratio); each designed protein is fused to an ALFA-tag nanobody in HEK293 cells to bring the named protein to FLAG-tagged glucokinase (GCK); Myc marks an untargeted standard; higher = target protein stabilised (more abundant)
# Details: target protein: 3xFLAG-MCP-GCK-ALFA reporter; HEK293 landing pad (RPLP)
# Procedure, shortened: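 Binders fused to an ALFA nanobody were recombined as a library into HEK293 landing-pad cells, which were induced with 2 μg mL^−1 doxycycline and then transfected to express a FLAG-tagged target and a Myc-tagged standard. After 48 h, circular RNA barcodes recovered by anti-FLAG and anti-Myc immunoprecipitation of lysates were reverse transcribed, amplified and sequenced. Each binder's target abundance is the median log2 ratio of FLAG to Myc barcode read proportions, from barcodes present at ≥10^−7 in both replicates, binders carrying ≥3 barcodes per replicate, a 10^−6 pseudocount and pooled replicates.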
row,Binder,median log2 fold change
1,B1,-0.242
2,B2,0.283
3,B3,0.018
4,B4,0.127
5,B5,0.13
6,B6,-0.38
7,B7,-0.224
8,B8,-0.278
9,B9,0.0363
10,B10,0.0763
11,B11,0.0826
12,B12,0.286
13,B13,0.33
14,B14,0.123
15,B15,0.157
16,B16,0.0923
17,B17,0.0399
18,B18,-0.356
19,B19,0.0541
20,B20,-0.586
21,B21,-0.554
22,B22,0.313
23,B23,-0.202
24,B24,0.175
25,B25,0.156
26,B26,0.172
27,B27,-0.0847
28,B28,0.159
29,B29,0.267
